No end group written: not given here.
How the values were obtained:
[1] = biological target: ScSte2 (Saccharomyces cerevisiae, UniProt D6VTK4); assay: ScSte2 biosensor dose-response, ymTurquoise2 readout, no protease (incl. ScPep alanine scan, yTC391); type: cell-based; settings: ymTurquoise2 fluorescence, Hill function best-fit ± standard error
[2] = test system: SjSte2 with peptide proteases
Protocol: All measurements were performed in biological triplicate.

Sequence of ScSte2 (D6VTK4 whole entry): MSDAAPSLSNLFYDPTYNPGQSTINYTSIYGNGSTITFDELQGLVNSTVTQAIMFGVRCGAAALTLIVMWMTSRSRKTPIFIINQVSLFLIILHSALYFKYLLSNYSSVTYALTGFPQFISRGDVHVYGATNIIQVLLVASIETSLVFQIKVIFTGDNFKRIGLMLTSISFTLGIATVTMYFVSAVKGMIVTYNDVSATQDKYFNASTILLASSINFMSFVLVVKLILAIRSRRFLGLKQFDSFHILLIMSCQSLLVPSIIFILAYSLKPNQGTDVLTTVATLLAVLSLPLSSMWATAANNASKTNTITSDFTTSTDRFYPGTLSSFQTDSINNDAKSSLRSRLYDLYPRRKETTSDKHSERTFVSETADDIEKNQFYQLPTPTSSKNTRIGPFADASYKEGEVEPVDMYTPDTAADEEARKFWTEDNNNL

Row | Sequence | Bottom [1] [A.U.] | Top [1] [A.U.] | shift of apparent EC50 by complementary protease [2]
1 | WAWLQLKPGQPMY [ScPep2A] | 4.9 ± 2.1 | 270 ± 10 | 
2 | WHALQLKPGQPMY [ScPep3A] | 4.2 ± 1.6 | 280 ± 10 | 
3 | WHWLQLKPGQPAY [ScPep12A] | 5.9 ± 4.7 | 410 ± 10 | 
4 | WHWLQAKPGQPMY [ScPep6A] | 3.9 ± 2.3 | 310 ± 10 | 
5 | WHWLQLKPGAPMY [ScPep10A] | 4.9 ± 2.4 | 380 ± 10 | 
6 | WHWLQLKPGQAMY [ScPep11A] | 5.3 ± 3.7 | 410 ± 10 | 
7 | WHWLQLKPGQPMA [ScPep13A] | 4.9 ± 2.5 | 360 ± 10 | 
8 | WHWLQLKPAQPMY [ScPep9A] | 3.9 ± 2.1 | 370 ± 10 | 
9 | WHWLQLAPGQPMY [ScPep7A] | 10 ± 4 | 400 ± 10 | 
10 | WHWLQLKAGQPMY [ScPep8A] | 4.5 ± 1.7 | 430 ± 10 | 
11 | WHWLALKPGQPMY [ScPep5A] | 5.0 ± 2.3 | 380 ± 10 | 
12 | VSDRVKQMLSHWWNERNPDTANL [SjPep] |  |  | more than one order of magnitude
13 | AHWLQLKPGQPMY [ScPep1A] | 6.4 ± 3.4 | 320 ± 10 | 
